Consider 105 molecules from PubChem BioAssay AID488969 (Vanderbilt High Throughput Screening Facility, 2010).

Molecules are shown by their SMILES. Whole data set: some 110,000 compounds, median “z-score” near -0.1, cut for the highest 2% near 2. This is one part of the list. Activity calls are given as the source filed them.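 The calls were made as follows: active = z-score in the third read window above 3 or below -3; inactive = the rest.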 Residues, ends and D or L forms follow the SMILES beside them. *: point of attachment. OBn = c1ccc(CO*)cc1

This assay deals with Metabotropic glutamate receptor 8 (Rattus norvegicus) (UniProt P70579). Kind of assay: rat mGluR8 modulators via GIRK flux, primary screen, cell-based, thallium flux, HTS (AID 488969). As to conditions: HEK293 rat mGluR8, GIRK (G protein-gated inwardly rectifying potassium channel) thallium flux, FluoZin2; at 10 µM; stronger effect = higher value; submaximal glutamate (EC20) added with thallium.
Sequence of UniProt P70579 (P70579 whole entry, looked up): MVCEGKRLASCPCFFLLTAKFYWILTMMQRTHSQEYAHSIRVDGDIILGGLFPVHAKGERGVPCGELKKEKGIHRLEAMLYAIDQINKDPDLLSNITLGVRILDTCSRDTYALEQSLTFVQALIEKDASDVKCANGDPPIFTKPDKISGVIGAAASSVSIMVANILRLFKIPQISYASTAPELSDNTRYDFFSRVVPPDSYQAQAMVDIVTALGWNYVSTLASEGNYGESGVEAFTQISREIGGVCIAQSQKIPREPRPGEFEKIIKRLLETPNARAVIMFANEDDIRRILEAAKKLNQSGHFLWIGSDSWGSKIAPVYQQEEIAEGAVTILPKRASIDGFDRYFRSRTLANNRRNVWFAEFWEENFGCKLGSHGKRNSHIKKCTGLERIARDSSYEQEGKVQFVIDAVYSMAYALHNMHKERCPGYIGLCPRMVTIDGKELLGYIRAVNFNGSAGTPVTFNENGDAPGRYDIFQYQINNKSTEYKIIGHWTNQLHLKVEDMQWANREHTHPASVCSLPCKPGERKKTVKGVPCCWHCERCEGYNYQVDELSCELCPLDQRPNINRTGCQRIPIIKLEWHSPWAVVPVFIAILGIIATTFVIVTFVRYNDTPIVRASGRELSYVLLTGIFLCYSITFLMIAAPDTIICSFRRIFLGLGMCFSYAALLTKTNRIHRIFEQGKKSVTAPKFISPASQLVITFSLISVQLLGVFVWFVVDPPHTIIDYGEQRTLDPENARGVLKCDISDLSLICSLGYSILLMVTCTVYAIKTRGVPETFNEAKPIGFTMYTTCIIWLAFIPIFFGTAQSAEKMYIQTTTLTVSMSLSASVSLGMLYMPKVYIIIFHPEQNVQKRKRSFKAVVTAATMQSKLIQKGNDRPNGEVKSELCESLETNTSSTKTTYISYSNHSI
`CC1(C)OC(=O)N(c2ccccc2)C12C=Cc1cc(Br)ccc1O2` (stereo not given) displayed a z-score of -0.751.
The same measure for `O=C(NCc1cccnc1)C1CC(=O)N(C2CCCCC2)C1` (stereo not given): 0.0767; for `Cc1ccc(S(=O)(=O)N(C)C)cc1NC(=O)C1CCCC1`: -0.00397; for `COC(=O)C1C(=O)C2=C(CC1C)NC(C)=C(C(=O)OCc1ccc(OC)cc1)C2c1ccc(C)o1` (stereo not given): -0.77.
In the case of `COc1ccc(-c2cc(C(F)(F)F)nc(NCc3cccnc3)n2)cc1`, the z-score is -0.571.
Regarding `Cc1ccc(C)c(S(=O)(=O)Nc2ccccc2C(=O)Nc2ccc(S(=O)(=O)Nc3ncccn3)cc2)c1`, the z-score stood at 0.861.
The same measure for `Cc1ccc2c(c1)N(CC(=O)c1cccc(Cl)c1)C(=O)C(C)O2` (stereo not given): -0.211; for `COc1ccccc1N1CCN(C2CCN(C(=O)c3cccc(F)c3)CC2)CC1`: -0.254; for `COc1cc(Cl)c(S(=O)(=O)NCCCN2CCOCC2)cc1Cl`: -0.403.
The molecule `Cc1ccc2cc(CN(CC(C)C)C(=O)C3CCCO3)c(=O)[nH]c2c1` (stereo not given) had a z-score of -0.106.
With `CN1CCN(C(=S)SCC(=O)Nc2nc(-c3ccccc3)c(-c3ccccc3)o2)CC1`, the z-score is -0.0527.
In turn, `COC(=O)c1ccc(NS(=O)(=O)c2cc(C)ccc2OC)cc1` displayed a z-score of 0.111.
Then `Cc1cccc(NC(=O)c2cccc(Cn3cc(Br)c([N+](=O)[O-])n3)c2)c1C`, with -0.106; and `COc1ccc(-c2nn(-c3ccccc3)cc2/C=N/NC(=O)c2ccc(Br)o2)cc1`, with -0.211.
For `COc1cc(C(=O)N/N=c2/sc3ccccc3n2C)cc(OC)c1OC`, the z-score was determined as 0.462.
In the case of `CCN(CC)C(=O)CSc1nc2ccccc2c(=O)n1-c1ccccc1OC`, the z-score was active: -3.48.
In the case of `CCOC(=O)c1nc(Nc2ccc(C(=O)OC)cc2)c2ccccc2n1`, the z-score is -0.481.
Then `CSCC[C@H](NC(=O)NCCc1ccc(F)cc1)C(=O)O`, with -0.317; and `CC(=O)Nc1ccc(NC(=O)COc2ccccc2C(=O)Nc2cccc(Cl)c2Cl)cc1`, with 0.28; and `Cc1ccccc1Nc1nc2nonc2nc1N1CCOCC1`, with active: 6.03.
Then `N#C/C=C(/N)c1ccc(Br)cc1`, with -0.0152; and `CC(=O)CSc1nc2ccccc2o1`, with -0.0278.
Then `COc1cc(/C=C(/C#N)c2nc3ccccc3[nH]2)ccc1OCc1ccc(C(=O)O)o1`, with -0.222; and `CC(Cc1cccs1)NC(=S)Nc1ccc(Cl)cc1` (stereo not given), with 0.996.
Regarding `COc1ccc(C(=O)Nc2ccc(S(=O)(=O)Nc3cc(C)nc(C)n3)cc2)c(OC)c1`, the z-score is 0.0186.
For `O=C(c1ccccc1)N1CCCC(c2nc3c(nnn3Cc3ccccc3)c(=O)[nH]2)C1` (stereo not given), the z-score is -0.398.
Consider `O=C(Cn1nc(Cl)nc1Cl)c1cc2ccccc2oc1=O`, for which the z-score is -0.931.
As for `CCc1ccccc1NC(=S)NCc1cccn1C`, the z-score turned out to be 0.000642.
Then `CCOc1cc(-c2c(C#N)c(N)nc3c2CCc2ccccc2-3)ccc1O`, with -0.215; and `C=C(C)CSc1nnc(CCNC(=O)OC(C)(C)C)o1`, with 2.19; and `O=c1[nH]c(CN2CCc3ccccc32)nc2scc(-c3cccs3)c12`, with 0.311.
Then `O=c1[nH]c(CSc2ccccn2)nc2c1cnn2-c1ccccc1`, with 0.0602; and `C=CCn1c(SCCN2C(=O)c3ccccc3C2=O)nc2scc(-c3ccccc3)c2c1=O`, with -1.56.
The same measure for `Cc1ccc(NC(=S)NCc2cccs2)c(C)c1`: -0.449; for `CC(C)CC(=O)NCCc1ccncc1`: -0.228.
`Cc1cc(C(=O)COC(=O)c2n[nH]c3ccccc23)c(C)n1C` gave a z-score of -0.0875.
On to `CCOC(=O)c1nnc(-c2ccccc2)nc1Oc1ccccc1Cl`, for which the z-score was -0.346.
`C=CCn1c(=O)c2ccccc2n2c(Sc3nnnn3-c3ccccc3)nnc12` returned a z-score of 0.266.
`Cc1ccc(Cn2nnc3c(=O)n(Cc4cccc(C)c4)cnc32)cc1` registered a z-score of -0.357.
Then `Cc1cc(C)c(NC(=O)CS(=O)CC(=O)N2CCN(c3ccccc3)CC2)c(C)c1` (stereo not given), with 0.0654.
In the case of `CC1=NN(c2ccccc2)C(=O)/C1=C/C=C/c1ccccc1`, the z-score is -0.00758.
Molecule `CCc1nc(Nc2ccc3c(c2)OCCO3)c2oc3ccccc3c2n1` registered a z-score of -0.139.
Turning to `COc1ccc(C2Nc3ccccc3C(=O)N2c2ccc(Cl)cc2)cc1Cn1cc([N+](=O)[O-])cn1` (stereo not given), the z-score is -0.199.
The same measure for `COc1cc(NC(=O)c2ccc(S(=O)(=O)N(C)C)cc2)cc(OC)c1OC`: 0.924; for `O=C(Nc1ccccc1C(=O)N1CCOCC1)c1ccc(F)cc1`: -0.431; for `O=C(c1ccco1)N1CCN(C(=O)C2CCCN(S(=O)(=O)c3cccc4nsnc34)C2)CC1` (stereo not given): -0.472.
Consider `COC(=O)c1cc(N=CC2=C(O)CC(C)(C)CC2=O)cc(C(=O)OC)c1`, for which the z-score is -0.528.
The same measure for `O=C(CCCl)Nc1cc(SCCO)cc([N+](=O)[O-])c1`: -0.219; for `COc1ccc(OC)c(NC(=O)c2ccc(-n3cccn3)nc2)c1`: -0.194.
Then `CCc1ccc(C(=O)COC(=O)c2cccc(N3C(=O)c4c(C)nc5ccccc5c4C3=O)c2)cc1`, with 0.138; and `CCOC(=O)CN1C(=O)C(O)(C2CCc3ccccc3C2=O)c2ccccc21` (stereo not given), with 0.544.
Regarding `CC(=O)c1c(C)[nH]c(C(=O)NCCc2cccc(C)c2)c1C`, the z-score stood at 0.204.
Then `COc1ccc([N+](=O)[O-])cc1NC(=O)c1ccc(C)o1`, with -0.379; and `O=c1c(Oc2ccccc2Br)c(C(F)(F)F)oc2c(CN3CCCC3)c(O)ccc12`, with -0.0912; and `COc1ccccc1N1CCN(CC(=O)NCC2CCCO2)CC1` (stereo not given), with -1.21.
Then `COCCn1c(C)cc(C2=NNC(=Nc3ccc(OC)cc3)SC2)c1C`, with 0.139; and `CCNC(=O)CSc1nc2cc([N+](=O)[O-])ccc2n1-c1cccc(C(F)(F)F)c1`, with -0.0324; and `COCc1cc(C)nc(Nc2ccccc2C)c1C#N`, with -0.365.
Then `CC(=O)c1cc(F)c(N2CCOCC2)cc1C`, with -0.22.
Molecule `CC(C(=O)Nc1ccc([N+](=O)[O-])cc1)N1CCN(C/C=C/c2ccccc2)CC1` (stereo not given) gave a z-score of -0.146.
The same measure for `COc1cc(NC(=O)c2cc(Cl)ccc2Cl)ccc1-c1cc2ccccc2oc1=O`: -0.16.
The molecule `CCn1c(CC(=O)Nc2ccc(C)cc2)nnc1SCC(=O)NCCc1ccccc1` displayed a z-score of -0.0821.
The same measure for `Cc1cc(C)cc(C(=O)n2cnnc2N)c1`: -0.0618; for `O=C(Nc1nnc(COc2ccc(F)cc2)s1)c1cccs1`: -0.982.
With `CCCc1cc(=O)[nH]c(SCC(=O)N2CCN(S(=O)(=O)c3ccc(Cl)cc3)CC2)n1`, the z-score was -0.0806.
The same measure for `COc1c(Cl)cc(Cl)cc1CNCCNCC(C)O` (stereo not given): active: 3.74.
Regarding `O=C(CCSCCc1ccccn1)Nc1ccc(Br)cc1F`, the z-score is -0.191.
Then `S=C1Nc2cc(Cl)ccc2Sc2ccccc21`, with active: 11.3; and `CCC(C)C(N)C(=O)NC(CCC(=O)OCc1ccccc1)C(N)=O` (stereo not given) (H-Ile-Glu(OBn)-NH2; configuration not given here), with 0.0296.
Then `Cc1nnc(N(Cc2ccco2)C(=O)c2ccc(C#N)cc2)s1`, with -0.951; and `CC1(C)CC(=O)C2=C(C1)N1CCCCC1CC2=O` (stereo not given), with -0.786; and `CCc1c(C)nc2ncnn2c1N1CCCC(C(=O)Nc2ccc(NC(C)=O)cc2)C1` (stereo not given), with -0.0795.
The same measure for `COc1ccc(NC(=O)CC2SC(=Nc3ccccc3)NC2=O)cc1` (stereo not given): -0.128; for `CCn1c2ccccc2c2cc(NC(=O)CSc3nnc(-c4cccc(OC)c4)n3N)ccc21`: -0.0921.
As for `CN(c1ccc(OCC(=O)OCC(=O)Nc2ccccc2)cc1)S(=O)(=O)c1ccc(F)cc1`, the z-score was -1.26.
The same measure for `Cc1ccccc1N(CC(=O)N/N=C/c1ccc(Cl)cc1)C(=O)c1ccccc1`: -0.182.
For `O=C(Cc1cccs1)Nc1ccc(C(=O)O)cc1`, the z-score came to 0.25.
Then `CCc1cccc(C)c1NC(=O)C(c1ccc(O)cc1)N1CCC1=O` (stereo not given), with 0.226.
The same measure for `CCOC(=O)C1=C(N2CCCCC2)c2cc3c(n2C1=O)CCCC3`: -1.72; for `c1ccc2c(-c3nnc(SCc4cn5ccccc5n4)o3)c[nH]c2c1`: -0.481; for `Cn1c2c(c(=O)n(C)c1=O)[C@@]1(C(=O)Nc3ccccc31)C(C#N)=C(N)O2`: 0.194.
`COc1ccc(-c2nn(-c3ccccc3)cc2/C=C2/SC(=S)N(Cc3ccco3)C2=O)c(C)c1`: the z-score came to 0.0595.
The same measure for `CCN(CC)C(=O)c1ccc(CS(=O)(=O)c2ccc(OC)cc2)o1`: 0.0481; for `CCN(CC)c1nc2c(s1)C(=O)NCCC2`: 0.541.
Then `C=CCOc1c(CNc2ncn[nH]2)cccc1OC`, with 0.502; and `O=C(CNc1ccccc1)N/N=C/c1ccc2c(c1)OCCO2`, with -0.48.
The same measure for `COc1cccc(-n2nnc3c(=O)n(Cc4ccc(F)cc4)cnc32)c1`: -0.217; for `Cc1cccc(OCCNC(=O)c2cccc(Oc3ccc(C(F)(F)F)cc3[N+](=O)[O-])c2)c1`: -0.134.
`COc1ccc(S(=O)(=O)O/N=C2\CCSc3ccc(C)cc32)cc1` came in with a z-score of 0.295.
Then `Cc1ccc(Cl)cc1N1CCN(C(=O)CCS(=O)(=O)c2cccc3nonc23)CC1`, with 0.119; and `COc1ccccc1NC(=O)COc1ccc(/C=N/NC(=O)CSCc2cc(C)cc(C)c2)cc1`, with -0.137.
As for `Cc1cc(=O)oc2cc(OCC(=O)OCc3nnc(-c4ccccc4)o3)ccc12`, the z-score is -0.34.
Then `CCOC(=O)c1c(-c2ccccc2)oc2ccc(O)c(CN3CCCC3)c12`, with 1.41; and `CC(C)c1cc(C(=O)NNC(=S)NCc2ccco2)c(O)c(C(C)C)c1`, with 0.25.
For the molecule `Cc1c(C(=O)OCC(=O)NCCN2C(=O)CSC2=O)oc2c1ccc1ccccc12`, the z-score is -0.275.
The same measure for `CC1=CC(C)(C)NC(=S)N1c1cccc(C)c1`: 0.903.
The same measure for `COc1ccc(N(CC(O)CN2C(=O)NC(C)(C)C2=O)S(=O)(=O)c2ccc(C)cc2)cc1` (stereo not given): 0.635; for `CCN(CC)S(=O)(=O)c1ccc(C)c(NC(=S)Nc2cccc(S(=O)(=O)N3CCCCCC3)c2)c1`: 0.0889; for `COCCCNC(=O)CCC(=O)NNc1nc2ccccc2c2nc(-c3ccccc3)nn12`: 0.614.
Then `CCOc1cc(C)c(S(=O)(=O)NC2CCCCC2)cc1C`, with -0.571.
Molecule `CC1C/C(=N\Nc2ccc(S(N)(=O)=O)cc2[N+](=O)[O-])CC(C)(C)C1` (stereo not given) registered a z-score of -0.465.
The same measure for `CN1C(=O)/C(=C2\SC(=S)N(CC3CCCO3)C2=O)c2ccccc21` (stereo not given): -0.000451.
`Cc1c(CN(C)C(=O)c2sc3cc(Cl)ccc3c2Cl)cnn1C` yielded a z-score of -0.784.
Then `Cc1ncc2c(c1OC(=O)c1ccc([N+](=O)[O-])cc1)COC(C)(C)OC2`, with 0.136; and `O=c1c2c(-c3cccs3)csc2ncn1-n1cccc1`, with 0.132.
